The other results are listed elsewhere or left out. Single values are uncertain, as repeats are few or missing.
Each compound was assayed on C32 (assay: cell count relative to DMSO control; melanoma cells; higher = more viable cells). Conditions: library dose: standard library concentration; 72 h.
`COc1cc(Nc2ncc(F)c(Nc3ccc4c(n3)NC(=O)C(C)(C)O4)n2)cc(OC)c1OC` [Tamatinib] + NCC(=O)Nc1ccc(-n2nc(C(F)(F)F)cc2-c2ccc3c(ccc4ccccc43)c2)cc1 [OSU03012] (first compound 2 µM, partner dose 5 µM) was tested, and the cell count was 76.3%.
In the case of `CC1(C)NC(=O)N(c2ccc([N+](=O)[O-])c(C(F)(F)F)c2)C1=O` [nilutamide] + CN(C)S(=O)(=O)c1ccc2c(c1)/C(=C/c1cc3c([nH]1)CCCC3)C(=O)N2 [SU6656] (first compound 5 µM, partner dose 2 µM), the cell count is reported as 80%.
`COc1cc(Nc2ncc(F)c(Nc3ccc4c(n3)NC(=O)C(C)(C)O4)n2)cc(OC)c1OC` [Tamatinib] + CO[C@@H]1[C@H](N(C)C(=O)c2ccccc2)C[C@H]2O[C@]1(C)n1c3ccccc3c3c4c(c5c6ccccc6n2c5c31)C(=O)NC4 [Midostaurin] (first compound 2 µM, partner dose 0.4 µM) showed a cell count of 68.6%.
For `O=c1[nH]nc(Sc2ncc([N+](=O)[O-])s2)n1-c1ccc2c(c1)OCCO2` + Nc1nc(F)nc2c1ncn2[C@@H]1O[C@H](CO)[C@@H](O)[C@@H]1O [fludarabine] (first compound 1 µM, partner dose 1 µM), the cell count was 86.8%.
For `COc1cc(Nc2ncc(F)c(Nc3ccc4c(n3)NC(=O)C(C)(C)O4)n2)cc(OC)c1OC` [Tamatinib] + CC1(C)NC(=O)N(c2ccc([N+](=O)[O-])c(C(F)(F)F)c2)C1=O [nilutamide] (first compound 2 µM, partner dose 5 µM), the cell count was 79%.
For `O=c1[nH]nc(Sc2ncc([N+](=O)[O-])s2)n1-c1ccc2c(c1)OCCO2` + CC(=O)O[C@@]12CO[C@@H]1C[C@H](O)[C@@]1(C)C(=O)[C@H](O)C3=C(C)[C@@H](OC(=O)[C@H](O)[C@@H](NC(=O)OC(C)(C)C)c4ccccc4)C[C@@](O)([C@@H](OC(=O)c4ccccc4)[C@H]21)C3(C)C [Docetaxel] (first compound 1 µM, partner dose 0.0005 µM), the cell count was 72.1%.
For `O=C(O)c1ccc(-c2c[nH]c3ncc(-c4ccccc4)cc23)cc1C1CCCC1` + COc1ccc(COc2ccc(Cc3cnc(N)nc3N)cc2OC)cc1 [GW2580] (first compound 0.8 µM, partner dose 5 µM), the cell count was 95.3%.
For `O=c1[nH]nc(Sc2ncc([N+](=O)[O-])s2)n1-c1ccc2c(c1)OCCO2` + COc1cc(Nc2ncc(F)c(Nc3ccc4c(n3)NC(=O)C(C)(C)O4)n2)cc(OC)c1OC [Tamatinib] (first compound 1 µM, partner dose 2 µM), the cell count was 90.8%.
`COc1cc(Nc2ncc(F)c(Nc3ccc4c(n3)NC(=O)C(C)(C)O4)n2)cc(OC)c1OC` [Tamatinib] + NC(=O)Nc1cc(-c2cccc(F)c2)sc1C(=O)N[C@H]1CCCNC1 [AZD7762] (first compound 2 µM, partner dose 0.1 µM) showed a cell count of 90.6%.
For `O=c1[nH]nc(Sc2ncc([N+](=O)[O-])s2)n1-c1ccc2c(c1)OCCO2` + Cc1ccc(Nc2nccc(N(C)c3ccc4c(C)n(C)nc4c3)n2)cc1S(N)(=O)=O [Pazopanib] (first compound 1 µM, partner dose 2 µM), the cell count was 91.8%.
With `CC1(C)NC(=O)N(c2ccc([N+](=O)[O-])c(C(F)(F)F)c2)C1=O` [nilutamide] + Cc1ccc(NC(=O)c2cccc(N(C)C)c2)cc1NC(=O)c1ccc(O)cc1 [ZM336372] (first compound 5 µM, partner dose 10 µM) the cell count was 105%.
Compound `Cn1cncc1[C@@](N)(c1ccc(Cl)cc1)c1ccc2c(c1)c(-c1cccc(Cl)c1)cc(=O)n2C` [tipifarnib] + COC(=O)c1sccc1S(=O)(=O)Nc1ccc(Nc2ccccc2)cc1OC [GSK0660] (first compound 0.05 µM, partner dose 5 µM) has a cell count of 89.8%.
Compound `O=c1[nH]nc(Sc2ncc([N+](=O)[O-])s2)n1-c1ccc2c(c1)OCCO2` + C[C@]1(O)C[C@@H](c2nc(-c3ccc4ccc(-c5ccccc5)nc4c3)c3c(N)nccn32)C1 [OSI906] (first compound 1 µM, partner dose 2 µM) has a cell count of 84.1%.
With `COc1cc(Nc2ncc(F)c(Nc3ccc4c(n3)NC(=O)C(C)(C)O4)n2)cc(OC)c1OC` [Tamatinib] + Cc1ccc(NC(=O)c2cccc(N(C)C)c2)cc1NC(=O)c1ccc(O)cc1 [ZM336372] (first compound 2 µM, partner dose 10 µM) the cell count was 115%.
With `O=c1[nH]nc(Sc2ncc([N+](=O)[O-])s2)n1-c1ccc2c(c1)OCCO2` + C[C@]1(c2nc3c(C(N)=O)cccc3[nH]2)CCCN1 [Veliparib] (first compound 1 µM, partner dose 7 µM) the cell count was 85.3%.

— the supplement of paper PMC4604168 (melanoma cell lines)
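Also: cells treated in 1,536-well plates, then fixed and DAPI-stained, with nuclei counted from automated high-throughput microscope images.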
